# Measured values reported in PubChem BioAssay (EPA / NIEHS).
# The source holds more than one record for some entries. The other results are left out here. Rule for the calls: active = hit-call score of the fitted dose curve at least 0.9, where 1 is the maximum; inactive = score below 0.9. There may be further records. Values given together are repeated measurements in other runs, samples, wells, individuals or studies. Brackets with × say how often a value occurs here. The source holds several records for some structures; these can differ, active in one and inactive in another.
# Legend:
# [1] = BSK_3C_TissueFactor: BioMAP Diversity Plus: 3C Assay for Tissue Factor Biomarker Activity (AID 2282997); settings: BioMAP 3C HUVEC, tissue factor biomarker readout; actives raise or lower the signal
# Outline: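 Dosing of human umbilical vein endothelial cells preceded a 24 h incubation. Tissue Factor was then read by ELISA, with increases and decreases both scored relative to DMSO controls.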
# [2] = BSK_3C_uPAR: BioMAP Diversity Plus: 3C Assay for Urokinase-type plasminogen activator receptor (uPAR) Biomarker Activity (AID 2282998); settings: BioMAP 3C HUVEC, uPAR biomarker ELISA; actives raise or lower the signal
# Outline: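 In this endothelial cell-based assay, human umbilical vein primary cells were treated with chemicals and harvested at 24 h. uPAR was quantified using ELISA, with gains or losses fitted relative to DMSO controls.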
# [3] = BSK_3C_VCAM1: BioMAP Diversity Plus: 3C Assay for Vascular cell adhesion molecule 1 (VCAM1) Biomarker Activity (AID 2282999); settings: BioMAP 3C HUVEC, VCAM1 ELISA, cytokine-stimulated; actives raise or lower the signal
# Outline: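 Human umbilical vein endothelial cells (3C system), biomarker read by ELISA 24 h after dosing; bidirectional fit against DMSO baseline. Cytotoxicity tracked by SRB total-protein staining in parallel cultures at biomarker time.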
# [4] = BSK_4H_Eotaxin3: BioMAP Diversity Plus: 4H Assay for Eotaxin 3 Biomarker Activity (AID 2283000); settings: actives raise or lower the signal; primary human endothelial cells (HUVEC)
# Outline: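 Human umbilical vein endothelial cells (BSK_4H system) dosed with test chemical; Eotaxin-3 (CCL26) measured by ELISA 24 h after dosing. Bidirectional curve fitting relative to DMSO negative control as baseline.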
# [5] = read-out: Intercellular Adhesion Molecule 1 (ICAM1), ICAM1 (gene 3383); assay: BSK_3C_ICAM1: BioMAP Diversity Plus: 3C Assay for Intercellular Adhesion Molecule 1 (ICAM1) Biomarker Activity (AID 2283003); settings: actives raise or lower the signal; primary human endothelial cells (HUVEC)
# Outline: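 HUVEC primary cells stimulated under 3C conditions; ICAM1 measured by ELISA 24 h after compound dosing. Curves fitted bidirectionally against the DMSO baseline. Overt cytotoxicity checked by SRB staining of parallel cultures.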
# [6] = read-out: E-selectin (Homo sapiens) (UniProt P16581); assay: BSK_3C_Eselectin: BioMAP Diversity Plus: 3C Assay for Eselectin Biomarker Activity (AID 2283015); settings: actives raise or lower the signal; primary human endothelial cells (HUVEC)
# UniProt P16581, sequence (P16581 whole entry, looked up): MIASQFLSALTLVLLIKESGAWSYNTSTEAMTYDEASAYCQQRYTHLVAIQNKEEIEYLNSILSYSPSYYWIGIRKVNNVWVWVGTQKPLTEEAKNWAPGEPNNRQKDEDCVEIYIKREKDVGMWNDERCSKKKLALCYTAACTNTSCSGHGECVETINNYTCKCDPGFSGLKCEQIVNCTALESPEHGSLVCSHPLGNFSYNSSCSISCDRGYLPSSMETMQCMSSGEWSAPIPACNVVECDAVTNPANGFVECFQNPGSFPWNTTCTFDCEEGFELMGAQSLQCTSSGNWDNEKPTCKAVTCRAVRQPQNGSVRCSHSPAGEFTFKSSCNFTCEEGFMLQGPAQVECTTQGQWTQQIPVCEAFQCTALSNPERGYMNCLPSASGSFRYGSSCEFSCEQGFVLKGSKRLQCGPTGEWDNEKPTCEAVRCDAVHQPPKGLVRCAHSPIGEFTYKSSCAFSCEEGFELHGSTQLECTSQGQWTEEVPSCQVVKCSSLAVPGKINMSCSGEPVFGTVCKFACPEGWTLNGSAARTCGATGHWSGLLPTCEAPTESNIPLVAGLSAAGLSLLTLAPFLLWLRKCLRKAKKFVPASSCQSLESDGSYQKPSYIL
# Outline: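 E-selectin ELISA readout, fitted bidirectionally relative to DMSO, taken 24 h post-dosing in HUVEC cultures of the 3C system. Overt cytotoxicity tracked with sulforhodamine B staining of parallel wells.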
# [7] = read-out: Monocyte Chemoattractant Protein-1 (MCP1), CCL2 (gene 6347); assay: BSK_3C_MCP1: BioMAP Diversity Plus: 3C Assay for Monocyte Chemoattractant Protein-1 (MCP1) Biomarker Activity (AID 2283017); settings: actives raise or lower the signal; primary human endothelial cells (HUVEC)
# Outline: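 MCP-1 was measured by ELISA 24 h after dosing in primary HUVEC 3C cultures and fitted in both directions relative to DMSO; cytotoxicity was checked by SRB total-protein staining in parallel wells.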
# [8] = read-out: Monocyte Chemoattractant Protein-1 (MCP1), CCL2 (gene 6347); assay: BSK_4H_MCP1: BioMAP Diversity Plus: 4H Assay for Monocyte Chemoattractant Protein-1 (MCP1) Biomarker Activity (AID 2283018); settings: actives raise or lower the signal; primary human endothelial cells (HUVEC)
# Outline: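 Human umbilical vein endothelial cells (4H system) exposed to chemicals for 24 h in 96-well format. MCP-1 measured by ELISA; bidirectional fitting against DMSO, with SRB total-protein staining in parallel cultures for cytotoxicity.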
# [9] = read-out: Human Leukocyte Antigen - DR isotype (HLADR), HLA-DRA (gene 3122); assay: BSK_3C_HLADR: BioMAP Diversity Plus: 3C Assay for Human Leukocyte Antigen - DR isotype (HLADR) Biomarker Activity (AID 2283019); settings: actives raise or lower the signal; primary human endothelial cells (HUVEC)
# Outline: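 Bidirectional fitting against DMSO was applied to the HLA-DR ELISA signal from human umbilical vein endothelial cells, 24 h post-dose. Cytotoxicity came from parallel SRB total-protein staining; 3C proliferation was counted by SRB at 48 h.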
# [10] = read-out: Interleukin-8 (IL8), CXCL8 (gene 3576); assay: BSK_3C_IL8: BioMAP Diversity Plus: 3C Assay for Interleukin-8 (IL8) Biomarker Activity (AID 2283020); settings: actives raise or lower the signal; primary human endothelial cells (HUVEC)
# Outline: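 Primary human umbilical vein endothelial cells were dosed for 24 h. IL-8 was quantified by ELISA and fitted bidirectionally against DMSO. Cytotoxicity was assessed in parallel cultures by SRB staining at 560 nm.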
# [11] = read-out: Monokine induced gamma interferon (MIG), CXCL9 (gene 4283); assay: BSK_3C_MIG: BioMAP Diversity Plus: 3C Assay for Monokine induced gamma interferon (MIG) Biomarker Activity (AID 2283021); settings: actives raise or lower the signal; primary human endothelial cells (HUVEC);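 note: MIG protein level measured by immunoassay in the treated endothelial cultures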
# Outline: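 HUVEC primary endothelial cultures dosed with chemical; MIG quantified by ELISA at 24 h. Data fitted bidirectionally against DMSO control, with parallel SRB total-protein staining for cytotoxicity.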
# [12] = BSK_3C_SRB: Viability Assessment in the BioMAP Diversity Plus: 3C Assay (AID 2283023); settings: primary human endothelial cells (HUVEC);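 note: fitted both ways against DMSO so a hit may be signal rise or drop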
# Outline: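 Cytotoxicity readout in parallel HUVEC 3C cultures: after 24 h compound exposure, cells fixed with 10% TCA, stained with 0.1% SRB and read at 560 nm. Gain or loss relative to DMSO fitted.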
# [13] = read-out: Matrix Metallopeptidase 1 (MMP1), MMP1 (gene 4312); assay: BSK_BE3C_MMP1: BioMAP Diversity Plus: BE3C Assay for Matrix Metallopeptidase 1 (MMP1) Biomarker Activity (AID 2283024); settings: actives raise or lower the signal; primary human bronchial epithelial cells
# Outline: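 Human primary bronchial epithelial cells (BE3C system) dosed for 24 h; MMP-1 quantified by ELISA. Bidirectional fit against DMSO; cytotoxicity tracked in parallel cultures by SRB total-protein staining.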
# [14] = BSK_4H_SRB: Viability Assessment in the BioMAP Diversity Plus: 4H Assay (AID 2283027); settings: primary human endothelial cells (HUVEC);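 note: curves fitted both ways versus DMSO so AC50 may be loss or gain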
# Outline: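 Human umbilical vein endothelial cells, 24 h after chemical dosing; total protein measured by 0.1% sulforhodamine B staining after 10% TCA fixation, read at 560 nm. Bidirectional fitting against DMSO.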
# [15] = read-out: Urokinase-type plasminogen activator receptor (uPAR), PLAUR (gene 5329); assay: BSK_4H_uPAR: BioMAP Diversity Plus: 4H Assay for Urokinase-type plasminogen activator receptor (uPAR) Biomarker Activity (AID 2283030); settings: actives raise or lower the signal; primary human endothelial cells (HUVEC)
# Outline: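 uPAR level read by ELISA on HUVEC cultures (BioMAP 4H) 24 h post-dosing, analyzed for gain or loss relative to DMSO. Parallel SRB staining assessed overt cytotoxicity.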
# [16] = read-out: Human Leukocyte Antigen - DR isotype (HLADR), HLA-DRA (gene 3122); assay: BSK_BE3C_HLADR: BioMAP Diversity Plus: BE3C Assay for Human Leukocyte Antigen - DR isotype (HLADR) Biomarker Activity (AID 2283032); settings: actives raise or lower the signal; primary human bronchial epithelial cells
# Outline: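 Human primary bronchial epithelial cells (BE3C system) exposed to compound for 24 hours; cell-surface HLA-DR measured by ELISA, fitted bidirectionally relative to DMSO. Total protein by SRB in parallel cultures tracked cytotoxicity.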
# [17] = read-out: Vascular cell adhesion molecule 1 (VCAM1), VCAM1 (gene 7412); assay: BSK_4H_VCAM1: BioMAP Diversity Plus: 4H Assay for Vascular cell adhesion molecule 1 (VCAM1) Biomarker Activity (AID 2283033); settings: actives raise or lower the signal; primary human endothelial cells (HUVEC)
# Outline: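 Primary human umbilical vein endothelial cells, 4H stimulation system, treated for 24 h; cell-surface VCAM-1 quantified by ELISA. Bidirectional fitting against DMSO; cytotoxicity tracked by SRB total-protein staining in parallel cultures.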
# [18] = read-out: Tissue plasminogen activator (tPA), PLAT (gene 5327); assay: BSK_BE3C_tPA: BioMAP Diversity Plus: BE3C Assay for Tissue plasminogen activator (tPA) Biomarker Activity (AID 2283041); settings: actives raise or lower the signal; primary human bronchial epithelial cells
# Outline: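 Primary human bronchial epithelial cells in the BE3C system, exposed to compound for 24 h. tPA was quantified by ELISA; DMSO served as baseline, with gain or loss of signal fitted. Cytotoxicity checked in parallel cultures by SRB total-protein staining.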
# [19] = read-out: Human Leukocyte Antigen - DR isotype (HLADR), HLA-DRA (gene 3122); assay: BSK_CASM3C_HLADR: BioMAP Diversity Plus: CASM3C Assay for Human Leukocyte Antigen - DR isotype (HLADR) Biomarker Activity (AID 2283043); settings: actives raise or lower the signal; primary human coronary artery smooth muscle cells;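 note: cell-surface HLA-DR protein level quantified by ELISA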
# CD40, CD40 (gene 958) = assay: BSK_LPS_CD40: BioMAP Diversity Plus: LPS Assay for CD40 Biomarker Activity (AID 2283076); settings: actives raise or lower the signal; primary human HUVEC with PBMC
# Outline: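 In the LPS system of human endothelial cells with peripheral blood mononuclear cells, CD40 levels were read by ELISA 24 h post-treatment. Signal changes in either direction were fitted against the DMSO baseline, with parallel SRB protein staining.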
# [20] = read-out: E-selectin (Homo sapiens) (UniProt P16581); assay: BSK_LPS_Eselectin: BioMAP Diversity Plus: LPS Assay for Eselectin Biomarker Activity (AID 2283077); settings: actives raise or lower the signal; primary human HUVEC with PBMC
# Outline: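 E-selectin ELISA on LPS-stimulated endothelial cell/PBMC co-cultures, read 24 h post-treatment; gains and losses fitted against DMSO. Parallel SRB staining (0.1% SRB after 10% TCA fixation, 560 nm) flags overt cytotoxicity.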
# [21] = read-out: Interleukin-8 (IL8), CXCL8 (gene 3576); assay: BSK_LPS_IL8: BioMAP Diversity Plus: LPS Assay for Interleukin-8 (IL8) Biomarker Activity (AID 2283078); settings: actives raise or lower the signal; primary human HUVEC with PBMC
# Outline: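 ELISA read-out of IL-8 after 24 h chemical treatment of LPS-activated endothelial/PBMC human primary co-cultures. Changes either up or down relative to DMSO; overt cytotoxicity checked by sulforhodamine B staining in parallel wells.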
# [22] = BSK_LPS_SRB: Viability Assessment in the BioMAP Diversity Plus: LPS Assay (AID 2283079); settings: primary human HUVEC with PBMC;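 note: total protein by sulforhodamine B absorbance as a cytotoxicity measure; measured one day after compound addition; fitted in both directions against DMSO so loss or gain of signal counts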
# Outline: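 SRB viability endpoint: cells fixed with 10% TCA, stained with 0.1% SRB, read at 560 nm, 24 h post-dose. HUVEC/PBMC co-culture; signal change in either direction scored relative to DMSO.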
compound,measurement,setting,value
FC(F)(I)C(F)(F)C(F)(F)C(F)(F)C(F)(F)C(F)(F)I,AC50,[1],"active: 14.6, 17.1, 14.7, 38.1, 44.1 µM [separate samples]"
same,AC50,[2],"active: 11.1, 10.8, 11.4, 55.1, 48.3 µM [separate samples]"
same,AC50,[3],"active: 17.4, 16.4, 11, 43, 48.4 µM [separate samples]"
same,AC50,[4],"active: 11.7, 16.6, 15.4, 44.7, 43.2 µM [separate samples]"
same,AC50,[5],"active: 18.1, 15.9, 11.9, 45, 51.3 µM [separate samples]"
same,AC50,[6],"active: 14.2, 10.5, 10.1, 23.9, 51.9 µM [separate samples]"
same,AC50,[7],"active: 9.61, 11.7, 12.3, 23.8, 43.8 µM [separate samples]"
same,AC50,[8],"active: 11.7, 7.89, 10.9, 36.9, 21.9 µM [separate samples]"
same,AC50,[9],"active: 17.5, 12.4, 10.7, 38.7, 49.9 µM [separate samples]"
same,AC50,[10],"active: 10.7, 13.2, 12.1, 27.1, 46.9 µM [separate samples]"
same,AC50,[11],"active: 15.2, 17.1, 11.5, 49.8, 53.4 µM [separate samples]"
same,AC50,[12],"active: 9.92, 10.2, 11.5, 43.2, 25.7 µM [separate samples]"
same,AC50,[13],"active: 50.8, 54.5, 53.7 (2×), 14.1 µM [separate samples]"
same,AC50,[14],"active: 12.3, 12.6, 11.3, 49.7, 44 µM [separate samples]"
same,AC50,[15],"active: 11.4, 11.2, 12, 54.9, 24.7 µM [separate samples]"
same,AC50,[16],"active: 20 (2×), 14.8, 33.3, 45.3 µM [separate samples]"
same,AC50,[17],"active: 12.4, 12.3, 9.69, 36.2, 23.6 µM [separate samples]"
same,AC50,[18],"active: 10.7, 14.4, 39.4, 32.4 µM [separate samples]"
same,AC50,[19],"active: 19.1, 8.33, 16.1, 23.6, 36 µM [separate samples]"
same,AC50,"CD40, CD40 (gene 958)","active: 14.3, 17.7, 18.5, 54.2, 58.8 µM [separate samples]"
same,AC50,[20],"active: 10.9, 22.1, 21.6, 52.3, 40.8 µM [separate samples]"
same,AC50,[21],"active: 14.5, 16, 18.8, 23.1, 46.6 µM [separate samples]"
same,AC50,[22],"active: 12, 21, 18.1, 58.6, 49.9 µM [separate samples]"
